Data taken from publication PMC9911399, “Two distinct binding modes provide the RNA-binding protein RbFox with extraordinary sequence specificity”.
Where a chain is given by its changes, count along the chain named. The list shows a part of the results.

T1: RBFOX1 RRM RbFoxmut (Fox-RRM*) (Homo sapiens, UniProt Q9NWB1 109-208, R118D;E147R;N151S;E152T)
T1 sequence: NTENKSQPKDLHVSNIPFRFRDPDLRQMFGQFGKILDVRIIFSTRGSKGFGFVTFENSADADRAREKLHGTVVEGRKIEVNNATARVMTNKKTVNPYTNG

B1: UUCCCGA (DNA:RNA)
RNA: GGGAGACCGGAAUUCAGAUUGUCCUUCCCGAUUAAAUCCCGUCGUAGCCACCA
DNA 1: CAATCTGAATTCCGGTCTCCC
DNA 2: TGGTGGCTACGACGGGATT
B2: AAGAGUG (DNA:RNA)
RNA: GGGAGACCGGAAUUCAGAUUGUCCAAGAGUGUUAAAUCCCGUCGUAGCCACCA
DNA 1: CAATCTGAATTCCGGTCTCCC
DNA 2: TGGTGGCTACGACGGGATT
B3: CACGGGU (DNA:RNA)
RNA: B2 RNA with A25C, G27C, A28G, U30G, G31U
DNA 1: CAATCTGAATTCCGGTCTCCC
DNA 2: TGGTGGCTACGACGGGATT
B4: UGCACAA (DNA:RNA)
RNA: B1 RNA with U26G, C28A, G30A
DNA 1: CAATCTGAATTCCGGTCTCCC
DNA 2: TGGTGGCTACGACGGGATT
B5: GUAAGGA (DNA:RNA)
RNA: B1 RNA with U25G, C27A, C28A, C29G
DNA 1: CAATCTGAATTCCGGTCTCCC
DNA 2: TGGTGGCTACGACGGGATT
B6: UGAGUCC (DNA:RNA)
RNA: B1 RNA with U26G, C27A, C28G, C29U, G30C, A31C
DNA 1: CAATCTGAATTCCGGTCTCCC
DNA 2: TGGTGGCTACGACGGGATT
B7: AUGCGCG (DNA:RNA)
RNA: B2 RNA with A26U, A28C, U30C
DNA 1: CAATCTGAATTCCGGTCTCCC
DNA 2: TGGTGGCTACGACGGGATT
B8: UUAGACU (DNA:RNA)
RNA: B1 RNA with C27A, C28G, C29A, G30C, A31U
DNA 1: CAATCTGAATTCCGGTCTCCC
DNA 2: TGGTGGCTACGACGGGATT
B9: GACCAUU (DNA:RNA)
RNA: B2 RNA with A25G, G27C, A28C, G29A, G31U
DNA 1: CAATCTGAATTCCGGTCTCCC
DNA 2: TGGTGGCTACGACGGGATT
B10: UGACUGC (DNA:RNA)
RNA: B1 RNA with U26G, C27A, C29U, A31C
DNA 1: CAATCTGAATTCCGGTCTCCC
DNA 2: TGGTGGCTACGACGGGATT
B11: CCUGCCC (DNA:RNA)
RNA: B1 RNA with U25C, U26C, C27U, C28G, G30C, A31C
DNA 1: CAATCTGAATTCCGGTCTCCC
DNA 2: TGGTGGCTACGACGGGATT
B12: UAUCAUA (DNA:RNA)
RNA: B1 RNA with U26A, C27U, C29A, G30U
DNA 1: CAATCTGAATTCCGGTCTCCC
DNA 2: TGGTGGCTACGACGGGATT
B13: CCUGGAG (DNA:RNA)
RNA: B2 RNA with A25C, A26C, G27U, A28G, U30A
DNA 1: CAATCTGAATTCCGGTCTCCC
DNA 2: TGGTGGCTACGACGGGATT
B14: GCGUCAA (DNA:RNA)
RNA: B1 RNA with U25G, U26C, C27G, C28U, G30A
DNA 1: CAATCTGAATTCCGGTCTCCC
DNA 2: TGGTGGCTACGACGGGATT
B15: AGAGGAU (DNA:RNA)
RNA: B2 RNA with A26G, G27A, A28G, U30A, G31U
DNA 1: CAATCTGAATTCCGGTCTCCC
DNA 2: TGGTGGCTACGACGGGATT
B16: AAGGUAU (DNA:RNA)
RNA: B2 RNA with A28G, G29U, U30A, G31U
DNA 1: CAATCTGAATTCCGGTCTCCC
DNA 2: TGGTGGCTACGACGGGATT
B17: GAAUUAA (DNA:RNA)
RNA: B2 RNA with A25G, G27A, A28U, G29U, U30A, G31A
DNA 1: CAATCTGAATTCCGGTCTCCC
DNA 2: TGGTGGCTACGACGGGATT
B18: GGUAGAC (DNA:RNA)
RNA: B2 RNA with A25G, A26G, G27U, U30A, G31C
DNA 1: CAATCTGAATTCCGGTCTCCC
DNA 2: TGGTGGCTACGACGGGATT
B19: UGUAGAC (DNA:RNA)
RNA: B2 RNA with A25U, A26G, G27U, U30A, G31C
DNA 1: CAATCTGAATTCCGGTCTCCC
DNA 2: TGGTGGCTACGACGGGATT
B20: ACCAGGG (DNA:RNA)
RNA: B2 RNA with A26C, G27C, U30G
DNA 1: CAATCTGAATTCCGGTCTCCC
DNA 2: TGGTGGCTACGACGGGATT
B21: AUCAACG (DNA:RNA)
RNA: B2 RNA with A26U, G27C, G29A, U30C
DNA 1: CAATCTGAATTCCGGTCTCCC
DNA 2: TGGTGGCTACGACGGGATT
B22: UCUAGCG (DNA:RNA)
RNA: B2 RNA with A25U, A26C, G27U, U30C
DNA 1: CAATCTGAATTCCGGTCTCCC
DNA 2: TGGTGGCTACGACGGGATT
B23: AGUCCGU (DNA:RNA)
RNA: B1 RNA with U25A, U26G, C27U, A31U
DNA 1: CAATCTGAATTCCGGTCTCCC
DNA 2: TGGTGGCTACGACGGGATT
B24: UAUGAAA (DNA:RNA)
RNA: B1 RNA with U26A, C27U, C28G, C29A, G30A
DNA 1: CAATCTGAATTCCGGTCTCCC
DNA 2: TGGTGGCTACGACGGGATT
B25: GACGCCU (DNA:RNA)
RNA: B1 RNA with U25G, U26A, C28G, G30C, A31U
DNA 1: CAATCTGAATTCCGGTCTCCC
DNA 2: TGGTGGCTACGACGGGATT
B26: UUACAUU (DNA:RNA)
RNA: B1 RNA with C27A, C29A, G30U, A31U
DNA 1: CAATCTGAATTCCGGTCTCCC
DNA 2: TGGTGGCTACGACGGGATT
B27: UAUGAGA (DNA:RNA)
RNA: B1 RNA with U26A, C27U, C28G, C29A
DNA 1: CAATCTGAATTCCGGTCTCCC
DNA 2: TGGTGGCTACGACGGGATT
B28: UGCACGA (DNA:RNA)
RNA: B1 RNA with U26G, C28A
DNA 1: CAATCTGAATTCCGGTCTCCC
DNA 2: TGGTGGCTACGACGGGATT
B29: UCCUAGU (DNA:RNA)
RNA: B1 RNA with U26C, C28U, C29A, A31U
DNA 1: CAATCTGAATTCCGGTCTCCC
DNA 2: TGGTGGCTACGACGGGATT
B30: GUUGCUG (DNA:RNA)
RNA: B2 RNA with A25G, A26U, G27U, A28G, G29C
DNA 1: CAATCTGAATTCCGGTCTCCC
DNA 2: TGGTGGCTACGACGGGATT
B31: ACAAUAA (DNA:RNA)
RNA: B2 RNA with A26C, G27A, G29U, U30A, G31A
DNA 1: CAATCTGAATTCCGGTCTCCC
DNA 2: TGGTGGCTACGACGGGATT

Target: T1, RBFOX1 RRM RbFoxmut (Fox-RRM*)
Test: EMSA; HiTS-Eq, 1 nM pool, 10 min; buffer printed only for the single-RNA assays: 10 mM Tris pH 7.5, 150 mM NaCl, 3.4 mM EDTA, 0.001% NP-40, 30 C
Conditions: tags: His6 N-terminal (pET28a); label: 5' 32P
Method in brief: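 Relative association constants, normalised to the cognate motif, were derived by comparing read counts of each RNA species with those of the control reaction. The RNA sequenced was the free fraction, separated by 8% native PAGE after a 10 min equilibration in 50 µL of 1 nM 5′-radiolabelled RNA (7 randomized nucleotides) with increasing concentrations of purified wild-type or mutant RbFox RRM.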

| Binder | binding signal |
| --- | --- |
| B1 | 0.0767 KA relative to UGCAUGU |
| B2 | 0.15 KA relative to UGCAUGU |
| B3 | 0.11 KA relative to UGCAUGU |
| B4 | 0.0732 KA relative to UGCAUGU |
| B5 | 0.0372 KA relative to UGCAUGU |
| B6 | 0.0735 KA relative to UGCAUGU |
| B7 | 0.198 KA relative to UGCAUGU |
| B8 | 0.0743 KA relative to UGCAUGU |
| B9 | 0.0767 KA relative to UGCAUGU |
| B10 | 0.169 KA relative to UGCAUGU |
| B11 | 0.095 KA relative to UGCAUGU |
| B12 | 0.0784 KA relative to UGCAUGU |
| B13 | 0.113 KA relative to UGCAUGU |
| B14 | 0.0825 KA relative to UGCAUGU |
| B15 | 0.0959 KA relative to UGCAUGU |
| B16 | 0.116 KA relative to UGCAUGU |

| Binder | binding signal |
| --- | --- |
| B17 | 0.122 KA relative to UGCAUGU |
| B18 | 0.0783 KA relative to UGCAUGU |
| B19 | 0.123 KA relative to UGCAUGU |
| B20 | 0.0771 KA relative to UGCAUGU |
| B21 | 0.119 KA relative to UGCAUGU |
| B22 | 0.148 KA relative to UGCAUGU |
| B23 | 0.113 KA relative to UGCAUGU |
| B24 | 0.0566 KA relative to UGCAUGU |
| B25 | 0.078 KA relative to UGCAUGU |
| B26 | 0.0627 KA relative to UGCAUGU |
| B27 | 0.094 KA relative to UGCAUGU |
| B28 | 0.368 KA relative to UGCAUGU |
| B29 | 0.117 KA relative to UGCAUGU |
| B30 | 0.138 KA relative to UGCAUGU |
| B31 | 0.105 KA relative to UGCAUGU |
